Results: article PMC4336329 (PLoS ONE, 2015)
In all, about 310,000 compounds went through this assay and about 14,000 (4.5%) showed an effect of 50% or more. The effect is printed as a negative number. Some of the results follow.

These compounds were tested against human ether-à-go-go-related gene (hERG) potassium channel (human, UniProt Q12809) (assay: primary screen, population patch clamp on CHO cells stably expressing hERG).
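Note: peak tail current of the secondary pulse compared with the same well before compound.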

Sequence of human ether-à-go-go-related gene (hERG) potassium channel (Q12809 whole entry, looked up): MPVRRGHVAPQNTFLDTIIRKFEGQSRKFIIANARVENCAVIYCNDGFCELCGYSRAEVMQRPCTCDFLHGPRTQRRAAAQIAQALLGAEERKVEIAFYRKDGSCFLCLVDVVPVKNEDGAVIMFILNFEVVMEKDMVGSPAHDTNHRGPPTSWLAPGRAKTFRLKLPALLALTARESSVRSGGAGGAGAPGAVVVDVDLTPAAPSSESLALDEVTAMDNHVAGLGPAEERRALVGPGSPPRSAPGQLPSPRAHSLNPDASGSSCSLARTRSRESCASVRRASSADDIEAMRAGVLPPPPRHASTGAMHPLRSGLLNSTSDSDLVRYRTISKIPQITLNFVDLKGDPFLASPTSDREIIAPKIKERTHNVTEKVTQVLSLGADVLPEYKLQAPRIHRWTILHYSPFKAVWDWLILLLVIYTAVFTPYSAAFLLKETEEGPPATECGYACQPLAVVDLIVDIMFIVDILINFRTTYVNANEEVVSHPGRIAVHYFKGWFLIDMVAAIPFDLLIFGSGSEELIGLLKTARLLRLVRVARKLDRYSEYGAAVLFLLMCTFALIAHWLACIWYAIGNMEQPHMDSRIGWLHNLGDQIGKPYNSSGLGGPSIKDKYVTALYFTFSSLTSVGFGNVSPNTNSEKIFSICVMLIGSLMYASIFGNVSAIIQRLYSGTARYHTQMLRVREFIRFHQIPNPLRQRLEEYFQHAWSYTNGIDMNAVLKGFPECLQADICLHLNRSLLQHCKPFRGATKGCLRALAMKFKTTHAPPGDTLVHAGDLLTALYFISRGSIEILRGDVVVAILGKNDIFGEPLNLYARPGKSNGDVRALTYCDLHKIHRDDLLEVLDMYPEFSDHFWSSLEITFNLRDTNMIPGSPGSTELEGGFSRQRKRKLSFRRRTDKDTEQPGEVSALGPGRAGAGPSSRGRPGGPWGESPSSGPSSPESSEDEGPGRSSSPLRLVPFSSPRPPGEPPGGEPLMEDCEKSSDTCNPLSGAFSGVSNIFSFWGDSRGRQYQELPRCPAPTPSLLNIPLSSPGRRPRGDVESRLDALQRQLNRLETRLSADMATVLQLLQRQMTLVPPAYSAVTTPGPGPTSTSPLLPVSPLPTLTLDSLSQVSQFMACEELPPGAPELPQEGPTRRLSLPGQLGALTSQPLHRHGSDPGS

Structure (SMILES)	hERG current change (%, negative = inhibition) at 10uM
CC(C)[C@H]1CN=C2N(CCNC(=O)CCC3CCCCC3)[C@H](Cc3ccc(O)cc3)CN21	-40.2%
O=C(Nc1ccc(-n2cc(Br)cn2)cc1)c1ccncc1	22.2%
COc1ccccc1N1CC(C(=O)OCC(=O)Nc2c(C)cccc2C)CC1=O (stereo not shown)	17%
c1ccc2c(CN3CCOCC3)c[nH]c2c1	15.1%
CCOC(=O)c1[nH]c2ccccc2c1N=C(C)N(CC)CC	-54.7%
NC(=O)c1ccc(Oc2cccc3cccnc23)c([N+](=O)[O-])c1	-13.4%
Cc1ccccc1CNC(=O)CC1C(=O)NCCN1CC1CCCCC1 (stereo not shown)	6.33%
CSc1cccc(NC(N)=O)c1	-3.78%
O=C(Nc1cccc(Cl)c1)OC1CCCCc2cccnc21 (stereo not shown)	4.75%
NC(=O)c1c(NC(=O)c2ccc(F)cc2)sc2c1CCC2	12.3%
CCOC(=O)N1CCC2(CC1)C(C#N)=C(N)Oc1n[nH]c(CSc3ccc(C)cc3)c12	-6.73%
CSC1=NCCN1C(=O)COc1ccccc1	11.3%
O=C(O)c1ccc(NC(=S)NC(NC(=O)c2ccco2)C(Cl)(Cl)Cl)cc1 (stereo not shown)	9.22%
COc1ccc(CCC(=O)NCCc2cn3c(C)csc3n2)cc1	-8.8%
COc1cccc(NC(=O)Nc2cccn(Cc3ccc(C)cc3)c2=O)c1	22.5%
CC1=C(C(=O)N2CCOCC2)C(c2ccccc2F)NC(=O)N1 (stereo not shown)	9.15%
Cc1ccc(S(=O)(=O)N(CC(=O)N2CCOCC2)c2ccc(Br)cc2)cc1	-42.9%
CCC(C)C(=O)Nc1nnc(SCC(=O)Nc2ccc(F)cc2)s1 (stereo not shown)	11%
Cc1ccc(N2CC(C(=O)Nc3ccc(S(=O)(=O)N4CCCC4)cc3)CC2=O)cc1 (stereo not shown)	-8.07%
O=C(NCCC1=CCCCC1)c1ccc(Cl)cc1	-1.09%
COc1ccc(C(F)(F)F)cc1N/C=C\c1nnnn1-c1ccccc1	15.2%
NS(=O)(=O)c1ccc(NC(=O)Cn2nc(C(=O)O)c3ccccc3c2=O)cc1	27.4%

Structure (SMILES)	hERG current change (%, negative = inhibition) at 10uM
COc1ccc2c(c1)N(C)/C(=C1/SC(=NCc3ccccc3)N(c3ccccc3)C1=O)S2	20.8%
CCN(CC)c1ccc(C(=O)NNC(=O)CCc2nc3ccccc3c(=O)[nH]2)cc1	17.9%
CC(C)=CCC12CN3CCN(CC(C3)C1=O)C2	4.66%
COC(=O)CN1C(=O)[C@H]2[C@@H](c3ccc(C)o3)N3C(=O)CN(Cc4ccc(-c5ccccc5)cc4)C(=O)[C@@]3(C)[C@H]2C1=O	-18.1%
CC1(C)COC(c2cccn2Cc2ccccc2Cl)=N1	6.61%
COC(=O)C1=C(c2ccc(F)cc2F)C[C@@H]2CC[C@H]1N2C(=O)N1CCC(O)(c2ccc(Cl)cc2)CC1	-21.1%
O=C(CCS(=O)(=O)Cc1ccccc1)NC1CCCCC1	1.9%
O=C(COc1ccc(Br)cc1)N/N=C1\SCC(=O)N1c1ccc(F)cc1	-20.5%
Cc1cccc(-n2ncc3c2CCCC3NC(=O)CCN2CCCO2)c1C (stereo not shown)	14.7%
O=c1cccc2n1CC1CC2CN(c2ncnc3c2cnn3-c2ccccc2)C1 (stereo not shown)	-30%
CCOc1ccc2[nH]cc(C(=O)N3CCN(CC)CC3)c(=O)c2c1	-10.3%
CNC(=O)CN(c1cc(C)ccc1C)S(C)(=O)=O	-3.52%
COc1cc(NC(=O)c2ccccc2)ccc1NC(=O)c1cc2ccccc2o1	25.8%
CNS(=O)(=O)c1ccc(NC(=O)C2c3ccccc3Oc3ccccc32)cc1	1.39%
Fc1ccccc1CNc1ccc(Cl)c(Cl)c1	9.9%
CCN(CC)CCn1c2ccccc2c2nc(C)sc21	-30.6%
COc1ccccc1C(=O)N(Cc1sccc1C)C1CCS(=O)(=O)C1 (stereo not shown)	15.4%
Cn1c(SCC(=O)Nc2ccc3c(c2)OCO3)nnc1-c1cnccn1	-2.11%
COc1ccc(NC(=O)NCc2ccc3c(c2)OCO3)cc1OC	1.25%
N#C/C(=C\c1ccc(O)c(O)c1)S(=O)(=O)c1ccccc1	5.35%
CCc1ccccc1-n1nnnc1SCC(=O)Nc1cc(C)on1	3.52%
